Assay results taken from EP4786494A1 (Nanjing Leads Biolabs Co., Ltd., dated 2026).

Columns and labels:
[1] = target: T1, human FGFR2-his protein (huFGFR2-his) (human); assay: BLI (ForteBio Octet RED96e), fusion protein on AHC sensor, FGFR2-his in solution, 1:1 model
T1 construct: Extracellular region of human FGFR2 (NP_001138385.1) with a 6xHis tag; also called human FGFR2 extracellular protein
T1 chain: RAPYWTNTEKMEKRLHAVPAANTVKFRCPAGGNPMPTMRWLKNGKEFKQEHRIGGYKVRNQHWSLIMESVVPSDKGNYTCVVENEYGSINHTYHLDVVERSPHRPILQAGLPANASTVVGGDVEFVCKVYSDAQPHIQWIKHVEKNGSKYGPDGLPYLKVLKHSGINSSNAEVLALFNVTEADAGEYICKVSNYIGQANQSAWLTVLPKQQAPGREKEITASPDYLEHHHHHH

[2] = target: T2, human VEGF165 protein (ACROBiosystems, Cat. No. VE5-H5248) (human, UniProt P15692-4 27-191); assay: BLI (ForteBio Octet RED96e), fusion protein on AHC sensor, VEGF165 in solution, 1:1 model
T2 construct: the same entry is used for it
T2 sequence (looked up): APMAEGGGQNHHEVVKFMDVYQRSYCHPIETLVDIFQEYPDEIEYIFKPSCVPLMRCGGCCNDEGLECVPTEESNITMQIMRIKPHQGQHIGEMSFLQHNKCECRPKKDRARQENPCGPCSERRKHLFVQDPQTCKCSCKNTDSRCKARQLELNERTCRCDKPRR

B1: antibody-fusion protein huG11B8-VEGFR1-F (ADCC-enhanced huG11B8-VEGFR1) (bispecific antibody, human IgG1, kappa)
heavy: EVQLVQSGAEVKKPGATVKISCKASGYTFTDYNMDWVQQAPGKGLEWMGDINPKNGETFYAEKFQGRVTLTVDRSTNTAYMELSSLRSEDTAVYFCAKRDLNWYFDYWGQGTTVTVSS[no letters for human IgG1 constant region]GGGGSGGGGSGGGGSGRPFVEMYSEIPEIIHMTEGRELVIPCRVTSPNITVTLKKFPLDTLIPDGKRIIWDSRKGFIISNATYKEIGLLTCEATVNGHLYKTNYLTHRQTNTI
light: DIQMTQSPSSLSASVGDRVTITCQASDHINNWLAWYQQKPGKAPKLLISGATSLETGVPSRFSGSGSGKDYTFTISSLQPEDIATYYCQQYWSTPWTFGGGTKVEIKRTVAAPSVFIFPPSDEQLKSGTASVVCLLNNFYPREAKVQWKVDNALQSGNSQESVTEQDSKDSTYSLSSTLTLSKADYEKHKVYACEVTHQGLSSPVTKSFNRGEC
notes: Same chains as huG11B8-VEGFR1
Kd [1]: 4.53 nM | koff [1]: 0.00136 s⁻¹ | kon [1]: 299000 M⁻¹ s⁻¹ | Kd [2]: 0.108 nM | koff [2]: 6.12e-05 s⁻¹ | kon [2]: 568000 M⁻¹ s⁻¹
